# According to the supplement of paper PMC3334620:
# The full ranking holds about 33,000 sequences; the median of “E-score (-0.5 to 0.5)” is about -0.012, and the highest 2% start at about 0.29. The list shows a part of the results.
# Biological target: T1, Ybr033w (UniProt P38073)
# T1 sequence: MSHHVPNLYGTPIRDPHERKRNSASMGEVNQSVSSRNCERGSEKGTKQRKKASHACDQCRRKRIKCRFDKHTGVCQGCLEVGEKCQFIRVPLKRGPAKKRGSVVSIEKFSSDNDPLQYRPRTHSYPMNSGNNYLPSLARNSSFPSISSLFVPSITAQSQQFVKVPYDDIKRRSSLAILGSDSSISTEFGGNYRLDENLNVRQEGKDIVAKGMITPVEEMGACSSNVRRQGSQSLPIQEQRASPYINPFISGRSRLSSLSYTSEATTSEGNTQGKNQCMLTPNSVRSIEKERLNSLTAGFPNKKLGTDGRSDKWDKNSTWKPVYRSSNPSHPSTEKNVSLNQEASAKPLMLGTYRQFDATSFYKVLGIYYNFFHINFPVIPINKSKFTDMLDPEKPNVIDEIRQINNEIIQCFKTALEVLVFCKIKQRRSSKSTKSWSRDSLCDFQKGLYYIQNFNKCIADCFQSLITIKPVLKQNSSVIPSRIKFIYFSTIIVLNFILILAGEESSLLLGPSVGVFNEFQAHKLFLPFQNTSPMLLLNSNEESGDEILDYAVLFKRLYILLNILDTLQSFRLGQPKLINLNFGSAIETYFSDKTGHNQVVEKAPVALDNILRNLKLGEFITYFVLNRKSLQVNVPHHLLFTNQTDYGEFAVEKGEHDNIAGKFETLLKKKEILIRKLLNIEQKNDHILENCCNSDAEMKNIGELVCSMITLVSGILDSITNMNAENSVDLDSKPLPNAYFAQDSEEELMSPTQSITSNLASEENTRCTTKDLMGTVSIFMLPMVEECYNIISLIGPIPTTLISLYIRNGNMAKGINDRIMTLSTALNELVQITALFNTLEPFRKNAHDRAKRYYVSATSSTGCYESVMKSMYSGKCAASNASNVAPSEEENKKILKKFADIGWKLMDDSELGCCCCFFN
# Experiment: PBM E-score (8-mer binding enrichment) (E-score (-0.5 to 0.5)); higher = stronger / more preferred TF binding; most listed sequences are background and not binding sites
# Details: protein concentration: 200 nM; construct: GST-full length
# Experimental: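 Universal 'all 10-mer' protein binding microarrays (Agilent AMADID 015681) probed with GST-tagged S. cerevisiae TFs (full-length or DBD) made by in vitro transcription/translation (PURExpress), about 100-200 nM. Bound TF was detected with fluorescent anti-GST. Each ungapped 8-mer (which stands for itself and its reverse complement) is scored by the PBM enrichment score (E-score), a modified Wilcoxon-Mann-Whitney statistic from -0.5 to +0.5, computed with the Universal PBM Analysis Suite. Scale: above 0.35 generally sequence-specific binding.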
row,Sequence,PBM E-score
1,GTAACAGA,0.206
2,GGAACGCA,-0.0877
3,ATAACGAG,0.0751
4,GGACTCAA,-0.217
5,GAGCGGCA,-0.185
6,CAAGCCCC,-0.292
7,ACTAGCTG,-0.053
8,AACCCAAA,0.115
9,ATATAAAT,0.34
10,CAGTGACA,-0.122
11,AGTTAGCG,0.137
12,CCCGCGAC,-0.221
13,CCATGCAC,-0.103
14,GGGGACCA,-0.228
15,AGTGTTCC,0.131
16,CACCGAGC,-0.0991
17,GGTATACC,-0.102
18,ACTTTTCC,0.246
19,TGTTGCAA,0.269
20,ATAGAGAG,-0.127
21,TATGAGCA,-0.0537
22,GAATTCGA,0.0547
23,CTTATGAC,0.0784
24,GCTGAGAA,-0.101
25,AGCATGTA,0.0159

row,Sequence,PBM E-score
1,CGTTATTC,0.175
2,CGATTATA,0.276
3,AGCGGTGG,-0.24
4,CAAGCTCA,-0.176
5,AAGTCCTC,-0.0668
6,AATCCTGT,0.276
7,GAGCCAGC,-0.0814
8,GTGTTCAA,0.117
9,CGAATAAC,0.07
10,ACCGAGGT,-0.143
11,CCCCCGAC,-0.193
12,CCTCACCG,-0.286
13,CGAAGTTA,0.141
14,CTCTCTTA,0.0563
15,AAAGCGGC,0.0274
16,AGTGCTCA,-0.0918
17,AGACGTGG,0.0212
18,ACTTTAAA,0.253
19,TATATTAA,0.324
20,ACTGCGAC,0.00394
21,AAACGAGG,-0.0386
22,ACCGCTAG,-0.172
23,CTAGGTAA,0.015
24,AACTTGTC,0.124
25,CAGTAGCG,-0.0386

row,Sequence,PBM E-score
1,TAACTCGA,0.183
2,ACACGTGA,0.0286
3,AAAGGAGT,0.00926
4,ACCTGGTG,-0.101
5,GATGTACA,0.0996
6,GACTGAAC,-0.217
7,CGTCAGGA,0.00965
8,AATCGCGG,0.0607
9,GGTCCAAC,-0.192
10,CACCTGCC,-0.159
11,ACAGAATC,-0.0758
12,AGATGTAT,0.176
13,AATGGATA,0.0899
14,GATGACAC,-0.192
15,CAACGATG,-0.0442
16,AACTTTCG,0.0707
17,ACGCCCGC,-0.256
18,GTTCAGCA,-0.0295
19,GTGGGCCA,-0.116
20,CATCGTCA,0.0638
21,AGGAAAAG,0.038
22,CCCTCTGA,-0.196
23,GTCTGTCA,-0.0435
24,ATCGAGGC,-0.159
25,CCCTTTAC,-0.152

row,Sequence,PBM E-score
1,AAAAAGTA,0.283
2,AACAGTAA,0.173
3,AATCTGCG,-0.0804
4,ACTAGAGT,0.0751
5,ACAGCTCT,-0.291
6,CTCTAGAG,-0.142
7,ACTGTTAA,0.16
8,CATTAGGA,0.0409
9,TATTAAAA,0.312
10,GAAGACTC,-0.0221
11,GGTCGTAC,-0.0313
12,GGGTGGAA,-0.134
13,ACCGCGGT,0.0405
14,AGGTAGAT,-0.143
15,ATATATCC,0.372
16,CCCTTCCG,-0.092
17,TACCAGTA,0.00281
18,ATATCGGC,-0.0651
19,CTATCCTC,0.0453
20,GGAAGTAC,-0.0324
21,GTGCTGAA,0.057
22,ACCGACGA,-0.172
23,GTCCCGAC,-0.119
24,CAAGGTTC,-0.204
25,CCCAACTC,0.155

row,Sequence,PBM E-score
1,GACAAGAA,0.205
2,AAAACCTT,-0.00181
3,CATGGGCC,-0.228
4,GACGTCGC,-0.227
5,ACGCATTG,-0.0453
6,CTGCAAAA,0.022
7,CGCCAGAG,-0.045
8,ATTAGAAT,0.225
9,AACGCGAT,0.0217
10,ATTACAGC,-0.21
11,CCGAGATC,-0.155
12,CAGAACCA,-0.0489
13,AAAAGATG,0.193
14,GATCGTAA,0.0355
15,CATTTCGA,0.174
16,GAGCGGGA,-0.0612
17,TCATTGAA,-0.00324
18,CTGGAATC,-0.00413
19,GGGCACAC,-0.123
20,CACAGGCC,-0.283
21,AAGCCAAA,0.107
22,ACGTTGAG,0.00985
23,AACTATGC,0.155
24,CTTTAACC,0.0112
25,CCGGAAGG,0.0448

row,Sequence,PBM E-score
1,TAGAATAA,0.205
2,ATAAACTG,0.266
3,CATAGCCC,-0.144
4,AAATTATA,0.215
5,CATCTGGC,-0.12
6,CTCAGTAA,0.148
7,CTGGCCGC,-0.0871
8,GAATAAGA,0.0352
9,CTTGGTGA,-0.0613
10,CCTGAGTA,0.155
11,AATTAAGC,0.169
12,AAATGCTG,-0.00629
13,AGCGATGG,-0.292
14,GTACTAAC,0.151
15,CATCAAGG,-0.0621
16,GTCGCTGA,0.0119
17,GACCACAA,-0.0851
18,AATGGTAG,0.0754
19,CCAATTAC,0.0522
20,ACATACAG,0.0812
21,GAGACTAC,-0.0915
22,AAGACTGA,-0.0518
23,CCGAAAAC,0.072
24,ACCTACAG,0.0954
25,CTCCGTGA,-0.162

row,Sequence,PBM E-score
1,CATCGTGC,0.0362
2,ATCCCGCA,0.00022
3,AACCGTCG,-0.162
4,CCTATGCG,-0.147
5,GTCCTTGA,-0.0584
6,AAAAGCGA,0.171
7,ATGCCCCC,-0.358
8,AACCCCCC,-0.445
9,CTAACTGC,-0.0759
10,CGCAGAGC,-0.0602
11,GCATCTTA,0.179
12,ACCCTTTA,-0.141
13,CAATATCG,0.102
14,ACGGCAAA,-0.0846
15,AGCCCCCC,-0.407
16,GCTTAGGA,-0.0915
17,ATTATAAG,0.237
18,GAGGGCAC,-0.323
19,CCATTACA,0.0813
20,CGGAGCCA,-0.0955
21,AACCCCTA,-0.135
22,GCCAGCGC,-0.123
